Test results reported in PubChem BioAssay AID686971 (National Center for Advancing Translational Sciences (NCATS), 2013).
In all, about 360,000 compounds went through this assay and about 7,500 (2.1%) were called active. The shares of active, inactive and inconclusive entries below differ from those in the screen. The call rests on the fitted dose curve; in most records, active means well fitted cell-killing curve with a large enough effect; inconclusive means small, poorly fitted or top-dose-only effect, or effect the other way, or another doubt; inactive means no such curve, though single readings can be large or run the other way. Potencies of inconclusive entries are left out as doubtful fits.

assay: qHTS for induction of synthetic lethality in tumor cells producing 2HG: qHTS for the HT-1080-IDH1KD cell line; conditions: HT-1080 IDH1 knockdown viability, ATP luminescence, 48 h; activity, negative = toxicity: at 46.1 µM (top of the series) unless noted;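 on activity, negative = toxicity: 0% = DMSO wells and -100% = cell-free medium wells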
Procedure, shortened: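 IDH1KD HT-1080 cells, 750/well, RPMI + 5% FBS; compound pinned after 2 h settling; 48 h, 37 °C; CellTiter-Glo luminescence; % activity normalised to DMSO and no-cell wells; curves fitted, classed by r2 and efficacy.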
Potency means the concentration at half of the fitted maximal effect; tags describe the fitted curve by direction and shape.

SMILES | Potency | activity, negative = toxicity
O=c1[nH]c(C2CCN(S(=O)(=O)c3ccccc3C(F)(F)F)CC2)nc2c1nnn2Cc1ccccc1 | inconclusive [cytotoxic, single point] | –
O=C(NCC1CCCCC1)c1ccc2nc([C@@H]3O[C@H](CO)[C@@H](O)[C@H]3O)[nH]c2c1 | inconclusive [rising, partial curve] | –
Cc1c(C(=O)NCCS(=O)(=O)N2CCN(c3ccccc3F)CC2)cccc1[N+](=O)[O-] | inconclusive [cytotoxic, partial curve] | –
CNC(=O)c1c[nH]c2ccc(S(=O)(=O)Nc3cccc(SC)c3)cc2c1=O | inconclusive [cytotoxic, single point] | –
C=CCn1c(SCc2ccccc2C#N)nnc1-c1cc(Br)ccc1O | inconclusive [cytotoxic, single point] | –
O=C(CSc1nc2ccccc2c(=O)n1NC(=O)Cc1ccccc1)NCCc1ccccc1 | – | inactive: 10.4%
O=C(CCc1nc2ccccc2c(=O)[nH]1)NCCN1C(=O)S/C(=C\c2ccc(OC(F)F)cc2)C1=O | inconclusive [cytotoxic, single point] | –
CC(NC(=S)Nc1ccc(S(=O)(=O)N2CCOCC2)cc1)C1CC2CCC1C2 (stereo not drawn) | inconclusive [cytotoxic, single point] | –
COC(=O)[C@]12CCCCC=C1N(Cc1ccc(Cl)cc1Cl)C(=O)[C@H](CC(=O)N1CCN(C(=O)c3ccco3)CC1)C2 | inconclusive [cytotoxic, single point] | –
CCOC(=O)N1CCN(S(=O)(=O)c2ccc(OCC(=O)OC)cc2)CC1 | – | inactive: 15.6%
CCCCCNC(=O)C(c1ccc(OC)cc1)n1c(=O)c(-c2cc3ccccc3[nH]2)nc2ccccc21 (stereo not drawn) | – | inactive: -23%
O=C(Nc1ccccc1)N1CCC(c2nc(-c3ccc(S(=O)(=O)N4CCOCC4)cc3)no2)CC1 | active: 7.94 µM | –
CC1(C(=O)Nc2ccc(F)c(Cl)c2)Cc2c(-c3ccc(C(N)=O)cc3)ccnc2O1 (stereo not drawn) | active: 20.6 µM | –
O=C1/C(=C/c2cccc([N+](=O)[O-])c2)CCc2ccccc21 | inconclusive [cytotoxic, single point] | –
COc1ccc(CCN2CC(C(=O)NC3CCCCC3)CC2=O)cc1OC (stereo not drawn) | – | inactive: 3.52%
CNC[C@H](CC1CCCCC1)NC[C@H](Cc1ccccc1)NCCC12CC3CC(CC(C3)C1)C2 | inconclusive [cytotoxic, single point] | –
O=C(N/N=C/c1ccc(N2CCOCC2)cc1)c1ccccc1OCCOc1ccccc1 | inconclusive [cytotoxic, single point] | –
COc1ccccc1NC(=O)CSc1nccc(-c2ccco2)n1 | – | inactive: 6.63%
CCn1cc(Br)c(C(=O)Nc2cccc(SC)c2)n1 | – | inactive: -13.8%
COc1cccc(CNc2nc3cc(-c4ccccc4CO)sc3c(=O)n2C)c1 | inconclusive [cytotoxic, single point] | –
CCOC(=O)Nc1ccc2c(CN3C(=O)NC(CC)(CC)C3=O)cc(=O)oc2c1 | – | inactive: -2.7%
ON=C1c2ccccc2-c2ccc(O)cc21 | inconclusive [rising, full curve] | –
O=C(CCc1ccccc1)Nc1sc2c(c1C(=O)O)CCCC2 | – | inconclusive: -32.6% [cytotoxic]

SMILES | Potency | activity, negative = toxicity
Cc1cccc(C(=O)CC(=O)c2cc(Cl)ccc2O)c1 | inconclusive [cytotoxic, single point] | –
Cc1ccc(-n2c(SCC(=O)Nc3ncc(Cl)cc3Cl)nc3ccccc32)cc1 | inconclusive [cytotoxic, partial curve, poor fit] | –
Cc1ccccc1NC(=S)N1CCN(c2ccccc2Cl)CC1 | – | inactive: -8.65%
C#CCn1c(=NC(=O)c2cc(-c3cccs3)nc3ccccc23)sc2cc(S(N)(=O)=O)ccc21 | active: 25.9 µM | –
C[n+]1cn(/N=C/c2ccccc2)c2ccccc21 | inconclusive [cytotoxic, partial curve] | –
Cc1ccc(NS(=O)(=O)c2ccc(-c3cnc(C4CC4)o3)cc2)c(C)c1 | active: 0.82 µM | –
COc1ccc(S(=O)(=O)Nc2ccccc2OC)cc1NC(=O)CC1CC2CCC1C2 (stereo not drawn) | – | inactive: -8.64%
C/C(Cn1nnc([N+](=O)[O-])n1)=N\NC(=O)c1ccc(O)cc1O | active: 18.4 µM | –
O=C1OC(c2ccccc2)(c2cc(Br)ccc2O)c2ccccc21 (stereo not drawn) | active: 20.6 µM | –
COc1ccc2[nH]c3c(N4CCN(Cc5ccc6c(c5)OCO6)CC4)ncnc3c2c1 | inconclusive [cytotoxic, single point] | –
CCc1ccc2c(c1)C(C)=CC(C)(C)N2 | – | inactive: 9.94%
CC[n+]1ccc(/C=C/c2ccc(N(C)C)cc2)c2ccccc21 | active: 1.3 µM | –
COc1ccc(-c2nc3ccccc3s2)cc1O | inconclusive [cytotoxic, single point] | –
CN(C)c1ccc(CN(C(=O)c2ccco2)C2CCS(=O)(=O)C2)cc1 (stereo not drawn) | – | inactive: 7.32%
CCC(CC)=NNc1cccc([N+](=O)[O-])c1 | inconclusive [cytotoxic, partial curve] | –
Cc1cc(C(=O)OCC(=O)N2CC(C)OC(C)C2)ccc1[N+](=O)[O-] (stereo not drawn) | – | inactive: -4.68%
O=C(CSc1n[nH]c(-c2ccccn2)n1)Nc1ccc(F)cc1 | inconclusive [cytotoxic, single point] | –
COc1cc(/C=C2/C(=O)NN(c3cccc(F)c3)C2=O)ccc1OC(=O)c1ccco1 | – | inactive: 1.14%
COc1ccc(N(C(=O)CCl)C(C(=O)NCCc2ccccc2)c2cccs2)cc1Cl (stereo not drawn) | active: 5.8 µM | –
COc1cccc(-c2ccc(NC(=O)C3CCCN(Cc4cnn(C(C)C)c4)C3)cc2)c1 (stereo not drawn) | inconclusive [cytotoxic, single point] | –
CC(=O)Nc1ccc(NC(=O)C(C)Sc2nnc(-c3cccs3)o2)cc1 (stereo not drawn) | – | inactive: 9.94%
CC(C)(C)C(=O)Nc1ccc(C(=O)N/N=C/c2ccccc2OC(=O)c2ccc(Cl)cc2Cl)cc1 | inconclusive [cytotoxic, single point] | –
COc1ccc(NC(=O)N(C)[C@H]2C[C@H]3c4[nH]c5ccc(-c6cccc(C)c6)cc5c4CCN3C[C@H]2[C@H](C)O)cc1 | inconclusive [cytotoxic, single point] | –

SMILES | Potency | activity, negative = toxicity
COc1cc(C(=O)N/N=C/c2ccccn2)cc(OC)c1OC | inconclusive [cytotoxic, full curve] | –
CCOC(=O)[C@]12CCCC=C1N(CCC1=CCCCC1)C(=O)[C@H](CC(=O)NCCC(C)C)C2 | inconclusive [cytotoxic, single point] | –
C[C@@H](c1ccccc1)N1C[C@H]2CCCN2c2cc(Br)ccc2S1(=O)=O | inconclusive [cytotoxic, partial curve] | –
O=C(Nc1nc(-c2ccccc2)cs1)c1ccc2c(=O)n3c(nc2c1)CCCCC3 | inconclusive [cytotoxic, single point] | –
COc1ccc(S(=O)(=O)NCC2CCCN(C(=O)CC3CCCC3)C2)cc1 (stereo not drawn) | inconclusive [cytotoxic, single point] | –
O=C1OCCN1C(=O)[C@H]1[C@H](c2ccc([N+](=O)[O-])cc2)C(c2ccc(F)cc2)=NN1c1ccc(Br)cc1 | inconclusive [cytotoxic, partial curve, poor fit] | –
Cc1ccc(N2CCN(S(=O)(=O)c3ccc4oc(=O)ccc4c3)CC2)c(C)c1 | inconclusive [cytotoxic, partial curve, poor fit] | –
Cc1ccc(-n2ncc3c(SCc4ccccn4)ncnc32)c(C)c1 | inconclusive [cytotoxic, partial curve, poor fit] | –
Cc1ccc(CSc2nc3ccccc3c(=O)n2CCCC(=O)NCc2ccco2)cc1 | – | inconclusive: -4.53%
O=C(C=P(c1ccccc1)(c1ccccc1)c1ccccc1)c1ccccc1-c1ccccc1C(=O)C=P(c1ccccc1)(c1ccccc1)c1ccccc1 | active: 7.31 µM | –
O=C(NCC1CCOCC1)c1cc(COc2cccc(C(F)(F)F)c2)on1 | – | inconclusive: -31% [cytotoxic]
NC(=O)NN=C1CCn2cccc21 | – | inconclusive: -0.801% [cytotoxic]
CCN1CCN(c2cc(C)c3cc(NC(=S)N4CCCC(C)C4)ccc3n2)CC1 (stereo not drawn) | active: 16.4 µM | –
Cc1ccc2ccc(C(Nc3ccccc3)c3ccc(F)cc3)c(O)c2n1 (stereo not drawn) | inconclusive [cytotoxic, partial curve] | –
CCCCNC(=O)C1(C)CCN1C(=O)c1csnn1 (stereo not drawn) | – | inactive: 7.04%
C=CCn1cc(/C=C/c2cc[n+](C)cc2)c2ccccc21 | inconclusive [cytotoxic, partial curve] | –
COc1ccc(C(=O)N2CCN(CCc3ccccc3)CC2)cc1[N+](=O)[O-] | – | inactive: -17%
COc1ccccc1N1CCN(CCS(=O)(=O)c2cc(Cl)ccc2Cl)CC1 | inconclusive [cytotoxic, single point] | –
CCCn1c(SCC(=O)NC2CCC(C)CC2)n[nH]c1=O (stereo not drawn) | – | inactive: 8.38%
O=C(Nn1c(C2CCCCC2)nc2ccccc2c1=O)c1ccc(Cl)c([N+](=O)[O-])c1 | inconclusive [cytotoxic, single point] | –
CC(=O)c1c(C)[nH]c(C(=O)OCCOc2ccccc2)c1C | inconclusive [cytotoxic, single point] | –
C=CCn1c(SCc2ccc(C(=O)Nc3nccs3)cc2)nnc1-c1ccc(C)c(Cl)c1 | inconclusive [cytotoxic, single point] | –
